Test results taken from the supplement of paper PMC12217912.
Some of the results follow. The full chains were built here from the parent and the listed change. Inactive controls read about 0.05.

B1: TEV protease; numbered along this chain (parent)
chain: MGESLFKGPRDYNPISSSICHLTNESDGHTTSLYGIGFGPFIITNKHLFRRNNGTLVVQSLHGVFKVKDTTTLQQHLVDGRDMIIIRMPKDFPPFPQKLKFREPQREERICLVTTNFQTKSMSSMVSDTSCTFPSGDGIFWKHWIQTKDGQCGSPLVSTRDGFIVGIHSASNFTNTNNYFTSVPKNFMELLTNQEAQQWVSGWRLNADSVLWGGHKVFMVKPEEPFQPVKEATQL

Variants of: B1
Assay: raw area under fraction-flipped curve 0-4 h after induction (AUC4h, not background-subtracted), DNA-recorder readout of cleavage of the substrate (dimensionless); higher = more cleavage of the substrate by the protease variant
Conditions: temperature: 34 °C; time window: 0-4 h after rhamnose induction
Procedure: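 In vivo DNA recorder in E. coli TOP10(DE3) ΔrhaA at 34 °C. Each TEVp single-site mutant (parent TEVp 0) is paired with a single-site variant of the 7-mer TEVs (canonical ENLYFQ|S). The substrate sits between flexible linkers in a Bxb1-sfGFP-TEVs-SsrA fusion, so cleavage stabilises Bxb1 and speeds flipping of a recombination array, read by NGS. The value is the raw area under the fraction-flipped curve over 0-4 h after rhamnose induction (AUC4h), with ≥20 reads per time point. It is not background-subtracted; inactive controls average about 0.047.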
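Also: Bxb1 expression induced with 0.2% (w/v) L-rhamnose at OD600 near 0.5, cultures sampled hourly, flipped fraction per protease–substrate barcode pair counted by paired-end Illumina sequencing.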

Row | Variant | area with substrate ENLYAQS | area with substrate ENLYCQS | area with substrate ENLYDQS | area with substrate ENLYEQS | area with substrate ENLYGQS | area with substrate ENLYHQS | area with substrate ENLYIQS | area with substrate ENLYKQS | area with substrate ENLYLQS | area with substrate ENLYMQS | area with substrate ENLYNQS | area with substrate ENLYPQS | area with substrate ENLYQQS | area with substrate ENLYRQS | area with substrate ENLYSQS | area with substrate ENLYTQS | area with substrate ENLYVQS | area with substrate ENLYWQS | area with substrate ENLYYQS
1 | Q151C | 0.0826 | 0.0819 | 0.0587 | 0.0709 | 0.066 | 0.0644 | 0.0867 | 0.0649 | 0.0801 | 0.0961 | 0.0669 | 0.0619 | 0.0712 | 0.0746 | 0.0773 | 0.0774 | 0.0886 | 0.0636 | 0.051
2 | Q151W | 0.0608 | 0.0769 | 0.0659 | 0.0589 | 0.0582 | 0.0609 | 0.072 | 0.0642 | 0.0705 | 0.0708 | 0.0591 | 0.0705 |  | 0.069 | 0.0728 | 0.0728 | 0.0767 | 0.074 | 0.06
3 | S127A | 0.0849 | 0.0874 |  | 0.0658 | 0.0696 | 0.0752 | 0.115 | 0.0603 |  | 0.089 | 0.0588 | 0.0652 | 0.0663 | 0.0562 |  | 0.0898 | 0.144 | 0.042 | 0.0893
4 | N53I | 0.0748 |  | 0.0553 | 0.0667 | 0.0682 | 0.081 | 0.079 | 0.0813 |  |  | 0.066 | 0.0565 | 0.0588 | 0.0526 | 0.0649 |  | 0.0892 |  | 0.0653
5 | N53R | 0.0761 |  | 0.0587 | 0.0613 |  | 0.06 | 0.114 | 0.0598 |  | 0.0786 | 0.0645 | 0.0662 |  | 0.0318 | 0.0724 |  | 0.0804 | 0.0724 | 
6 | E107M | 0.0607 |  | 0.0583 | 0.068 |  | 0.069 |  | 0.0536 |  | 0.0673 | 0.0783 | 0.062 | 0.0598 |  | 0.0681 | 0.0664 | 0.103 | 0.0811 | 0.0593
7 | E107N | 0.0861 |  |  |  | 0.0704 | 0.0618 | 0.125 | 0.0393 |  |  | 0.0754 | 0.08 |  |  | 0.081 | 0.0921 |  |  | 
8 | R204Q | 0.0804 | 0.0986 |  | 0.0888 | 0.0612 | 0.0749 | 0.144 | 0.0635 |  | 0.0928 | 0.0767 | 0.0709 |  | 0.059 | 0.0875 |  | 0.139 | 0.125 | 
9 | C20V | 0.0746 | 0.0993 | 0.0626 | 0.066 | 0.0772 | 0.0802 | 0.138 | 0.0584 | 0.101 | 0.0986 | 0.0707 | 0.0733 | 0.0591 | 0.0635 | 0.078 | 0.0744 | 0.156 |  | 
10 | E103W | 0.0628 | 0.0791 | 0.0517 | 0.0604 | 0.0625 | 0.0615 | 0.0863 | 0.0482 | 0.0748 | 0.0594 | 0.0708 | 0.0705 | 0.0658 | 0.0561 | 0.0739 | 0.0794 | 0.0848 | 0.057 | 0.0709
11 | S18L | 0.0928 | 0.0767 | 0.0626 | 0.0584 | 0.0627 | 0.0654 | 0.109 | 0.0455 | 0.0742 | 0.0768 | 0.0655 | 0.0818 |  |  | 0.0687 | 0.0904 | 0.101 | 0.0718 | 0.0737
12 | F38M | 0.0654 |  | 0.0577 | 0.0652 |  | 0.0524 | 0.121 | 0.0541 |  | 0.076 | 0.0577 | 0.0563 | 0.062 | 0.0338 | 0.0551 |  | 0.122 | 0.087 | 0.0549
